This note sets out measurements from PubChem BioAssay AID463173 (ICCB-Longwood Screening Facility, Harvard Medical School, 2010).

The whole screen tested about 52,000 compounds, of which about 4,300 (8.3%) were called active. No stated cut-off is given here; in the data, active means survival mostly below about 52% (no sharp cut-off); inactive means mostly above about 56%. This is one part of the list.

This test has as its system DeltatarO mutant. As to the kind of experiment: S. aureus survival, RN4220 and DeltatarO strains – OD600, teichoic acid synthesis inhibitors, primary screen (AID 463173). The note with it: S. aureus RN4220 wild type/DeltatarO growth, OD600, 18 h, stronger effect = lower value, screened at 18.75 µg/mL (by protocol).
Turning to `CCOc1ccccc1NC(=O)Cn1c(=O)n(CCCC(=O)NCCOC)c(=O)c2cc(OC)c(OC)cc21`, the survival was inactive: 69%.
In the case of `CC(=O)c1ccc(NC(=O)c2ccc3c(c2)N(Cc2cccc(Cl)c2)C(=O)c2ccccc2S3(=O)=O)cc1`, the survival is inactive: 92%.
Turning to `O=C(CSc1nnc(COc2cccc3ccccc23)n1CC1CCCO1)NC1CC1` (stereo not drawn), the survival is inactive: 68%.
As for `Cc1ccc(NC(=O)CN2CCCN(Cc3ccccc3Cl)S2(=O)=O)c(C)c1`, the figure is active: 17%; as for `COc1ccc(CNC(=O)Cn2ccc3cc(S(=O)(=O)N4CCCCC4)ccc32)c(OC)c1`, inactive: 72%; as for `O=c1c2ccccc2nc2n1CCS2`, inactive: 82%.
As for `COc1ccccc1CNC(=O)CCc1c(C)nc2cc(-c3ccccc3OC)nn2c1C`, the figure is inactive: 58%.
With `CCn1c(NN)nc2sc3c(c2c1=O)CC(C)(C)OC3` the figure was inactive: 104%; with `Cc1cc(Cl)ccc1NC(=O)CN1C(=O)CSc2ccc(S(=O)(=O)N(C)C)cc21`, inactive: 77%.
With `CCOCCc1nn2c(=O)cc(COC(=O)COc3ccccc3Cl)nc2s1`, the survival was inactive: 88%.
On to `CCOc1ccc2nc(Nc3nc4c(c(=O)[nH]3)CCCC4)nc(C)c2c1`, for which the survival is inactive: 95%.
Regarding `COc1ccccc1CNC(=O)C1CCCN(c2nn3cc(-c4ccc(F)cc4)nc3s2)C1` (stereo not drawn), the survival was inactive: 84%.
As for `Cc1ccc(Cn2ccn(CC(=O)Nc3ccccc3C(F)(F)F)c(=O)c2=O)cc1`, the figure is inactive: 113%; as for `CCOc1ccc(CCNC(=O)CS(=O)Cc2nc(-c3ccc(C)cc3)oc2C)cc1OCC` (stereo not drawn), inactive: 76%.
As to `Cc1ccc2c(c1)sc1nc(-c3cc4ccccc4oc3=O)cn12`, the survival was inactive: 82%.
As for `CCc1ccccc1NC(=O)Cn1nnc(-c2nc(-c3ccc(C)cc3)no2)c1N`, the survival was inactive: 88%.
On to `CCOc1cc(CNC(=O)CCCn2c(=O)c3cccn3c3cccnc32)cc(OCC)c1OCC`, for which the survival was inactive: 83%.
With `COc1ccc(CCNC(=O)c2cc(Nc3cc(C)cc(C)c3)nc3ccccc23)cc1OC` the figure was inactive: 97%; with `CCc1ccccc1NC(=O)CSc1ncc(S(=O)(=O)c2ccccc2)c(N)n1`, inactive: 81%; with `CCCN(CCC)S(=O)(=O)c1ccc(C)cc1`, inactive: 97%.
As to `CC(=O)Nc1cccc(NC(=O)CSc2cn(CC(=O)N(C(C)C)C(C)C)c3ccccc23)c1`, the survival is inactive: 62%.
Consider `Cc1oc(-c2ccc(Cl)cc2)nc1Cn1c(=O)cc(C)c2c(C)nn(-c3cccc(F)c3)c21`, for which the survival is inactive: 82%.
With `Cc1ccc(C(=O)Nc2ccc(C(=O)OCc3cc(=O)n4nc(C5CC5)sc4n3)cc2)cc1` the figure was inactive: 83%; with `CCn1cc(C(=O)N2CCN(c3ccc(F)cc3)CC2)c(=O)c2cc(S(=O)(=O)N3CCOCC3)ccc21`, inactive: 93%; with `COc1ccc(N2CCN(c3c4c(nc5nncn35)CCC4)CC2)cc1`, inactive: 78%.
In the case of `NC(=O)CCc1c[nH]c2ccccc12`, the survival is inactive: 78%.
On to `CCOC(=O)Cn1c(=O)oc2cc(S(=O)(=O)N3CCN(c4ccccc4F)CC3)ccc21`, for which the survival was inactive: 65%.
As for `CCN(CC)C(=O)Cn1cc(SCC(=O)Nc2ccccc2F)c2ccccc21`, the figure is inactive: 103%; as for `COc1ccc(NC(=O)c2nnn(Cc3nc(-c4cc(OC)c(OC)c(OC)c4)oc3C)c2C)cc1`, inactive: 61%; as for `CCN(c1cccc(C)c1)S(=O)(=O)c1ccc2c(c1)NC(=O)CCS2`, inactive: 72%.
With `COc1cccc(CNC(=O)C2CCN(c3nn4c(=O)cc(C)nc4s3)CC2)c1` the figure was inactive: 89%; with `Cc1cccc(N(CC(=O)NCCSCc2ccc(Cl)cc2)S(C)(=O)=O)c1C`, active: 33%; with `O=C(NC1CC(=O)N(c2ccccc2)C1)c1ccc(Br)o1` (stereo not drawn), inactive: 87%.
As for `COc1ccc2cc(C#N)c(SCC(=O)N3c4ccccc4CC3C)nc2c1` (stereo not drawn), the figure is inactive: 92%; as for `O=C(NCCCN1CCN(c2cccc(Cl)c2)CC1)Nc1ccccc1C(F)(F)F`, inactive: 73%; as for `CCCC(C)C(=O)Nc1nc2ccccc2s1` (stereo not drawn), inactive: 76%.
For `O=C(COc1ccc(S(=O)(=O)NC2CCCCC2)cc1Cl)NCc1ccccn1`, the survival was inactive: 104%.
With `CCOc1ccc(NC(=O)c2cc3c(n(-c4ccc(OC)cc4)c2=O)CC(C)(C)CC3=O)cc1` the figure was inactive: 60%; with `COc1ccccc1Cn1c(CNS(=O)(=O)c2ccccc2Cl)nc2cccnc21`, inactive: 91%.
With `CC(=O)c1cccc(NC(=O)c2cccn2-c2nnc(N3CCCCC3)s2)c1` the figure was inactive: 92%.
`CC(C)(C)c1ccc(Oc2nc3ccccn3c(=O)c2/C=C(\C#N)c2nc3ccccc3[nH]2)cc1`: the survival was inactive: 93%.
With `O=C(CCC(=O)N1CC2CCCN2c2ccccc21)NCc1ccccc1` (stereo not drawn) the figure was inactive: 74%; with `CCOC(=O)c1ccc(NC(=O)C2=C(C)Nc3nc(SCc4ccc(Cl)cc4)nn3C2c2ccc(C)cc2)cc1` (stereo not drawn), inactive: 77%.
With `CCCCOc1ccc(C(=O)N2CCC(c3nc4ccccc4o3)CC2)cc1` the figure was inactive: 71%.
As for `CCOc1ccc(CC(=O)NCCc2csc(-c3ccc(C(F)(F)F)cc3)n2)cc1`, the figure is inactive: 77%; as for `Cc1nn(-c2ccccc2)c(=O)c2ccccc12`, inactive: 92%.
`Cc1nn(C(=O)COc2ccccc2)c(C)c1Sc1ccccc1`: the survival is inactive: 115%.
For `O=C(c1ccc2c(c1)N(Cc1ccc(Cl)cc1)C(=O)c1ccccc1S2=O)N1CCN(c2ccccc2F)CC1` (stereo not drawn), the survival was inactive: 85%.
As for `O=C(O)c1cccc2cc[nH]c12`, the figure is inactive: 101%.
With `CSc1cccc(NC(=O)C2CCN(c3ncnc4c3nc3n4CCCCC3)CC2)c1` the figure was inactive: 97%; with `CCOc1ccccc1NC(=O)C(NS(=O)(=O)c1ccc2c(c1)CCC(=O)N2)c1ccccc1` (stereo not drawn), inactive: 94%; with `O=C(NC1CCCCCC1)c1cc2c(Cl)nc3ccccc3c2s1`, inactive: 116%.
With `CC(C)NC(=O)CC(=O)Nc1ccc2nc3n(c(=O)c2c1)CCCCC3` the figure was inactive: 72%; with `COc1ccc(NC(=O)c2ccc3c(SCC(=O)O)c4c(nc3c2)CCCC4)c(OC)c1`, inactive: 55%; with `O=C(NCCCN1CCN(c2ccc(F)cc2)CC1)c1cnn(-c2ccc(F)cc2)c1-n1cccc1`, inactive: 70%.
Take `CCc1ccc(NC(=O)CSc2ccc(-c3ccccn3)nn2)cc1`: the survival is inactive: 114%.
With `O=C(CN1C(=O)COc2ccc(S(=O)(=O)N3CCOCC3)cc21)N1CCN(c2cccc(Cl)c2)CC1` the figure was inactive: 74%; with `Cc1cccc(-c2nc3c4ccccc4n(Cc4cccc(Cl)c4)c(=O)n3n2)c1`, inactive: 97%.
With `COc1ccc(C(NC(C)=O)c2ccc(OC)cc2)cc1` the figure was inactive: 77%.
With `CC1CCN(CCC(=O)Nc2ccc(Br)cc2)CC1` the figure was inactive: 102%.
As to `CCCCS(=O)(=O)CC(O)CSc1nc(-c2ccc(C)cc2)cc(-c2ccccc2)c1C#N` (stereo not drawn), the survival is inactive: 68%.
As for `COc1cccc(C(=O)Nc2cccc(-c3cn4ccsc4n3)c2)c1OC`, the figure is inactive: 77%; as for `CCOC(=O)/C(C#N)=C/c1ccc(-c2ccc(Br)cc2)o1`, inactive: 81%; as for `Cc1ccccc1-c1noc(-c2cccnc2N2CCN(c3ccccc3)CC2)n1`, inactive: 102%.
With `CCOC(=O)c1ccc(NC(=O)CCn2c(=O)c3cccn3c3cccnc32)cc1` the figure was inactive: 69%.
As for `O=C(Nc1ccc(F)cc1F)c1cc(-c2ccc(Cl)cc2)on1`, the figure is inactive: 76%; as for `CCc1cccc(NS(=O)(=O)c2ccc(-n3cccn3)cc2)c1`, inactive: 101%.
In the case of `CCN(CC)C(=O)Cn1c(=O)n(-c2ccc(C)c(C)c2)c(=O)c2c3c(sc21)CCCCC3`, the survival is inactive: 95%.
With `Cc1ccc(C)c(N2CCN(C(=O)CCc3nnc4n(CC(C)C)c(=O)c5ccccc5n34)CC2)c1` the figure was inactive: 91%; with `Cc1ccc(CN2CCc3nc(Nc4ccc5c(c4)OCCO5)ncc3C2)cc1`, inactive: 89%.
Turning to `CCS(=O)(=O)N1CCc2cc(C(=O)Nc3ccc(C(=O)OC)cc3)ccc21`, the survival was inactive: 49%.
For the compound `CCn1cc(C(=O)N2CCN(c3cccc(Cl)c3)CC2)c2cc(OC)c(OC)cc2c1=O`, the survival was inactive: 54%.
With `CC1=C(c2ccc(C(C)C)cc2)S(=O)(=O)NC1=NCCCN1CCN(c2ccccc2F)CC1` the figure was inactive: 82%; with `C#CCSc1nc(-c2ccccc2)cc(-c2ccccc2)c1C#N`, active: 40%; with `Cc1ccc(-n2c3c(cc(-c4nc(-c5ccc(Cl)cc5)cs4)c2=O)C(=O)CC(C)(C)C3)cc1C`, inactive: 74%.
On to `Cc1ccccc1C(=O)Nc1ccc(-c2nc3ccccc3o2)cc1`, for which the survival is inactive: 101%.
In the case of `O=S(=O)(c1ccc(-c2cc(C(F)(F)F)on2)s1)N1CCN(c2ccc(F)cc2)CC1`, the survival is inactive: 119%.
As for `Cc1cc(Br)ccc1NC(=O)Cn1cc(S(=O)(=O)N2CCN(c3ccccc3F)CC2)c2ccccc2c1=O`, the figure is inactive: 88%; as for `COc1ccc(NC(=O)C2CCCN(c3ncnc4c3nc3n4CCCCC3)C2)c(OC)c1` (stereo not drawn), inactive: 91%.
Turning to `CCN1c2ccccc2-c2nc(SCC(=O)NCc3ccccc3)ncc2S1(=O)=O`, the survival is inactive: 93%.
With `COC(=O)CCNC(=O)NC(CCC(C)C)c1c(-n2cccc2)sc2c1CCN(C)C2` (stereo not drawn) the figure was inactive: 75%; with `CCC(=O)N1CCc2cc(S(=O)(=O)NCCC(=O)Nc3cc(C)ccc3OC)ccc21`, inactive: 125%.
As for `COc1ccccc1NC(=O)Cn1c(=O)n(CCC(=O)NCC2CCCO2)c(=O)c2cc(OC)c(OC)cc21` (stereo not drawn), the figure is inactive: 135%; as for `COc1ccccc1-c1cc2nc(C)c(CCC(=O)O)c(C)n2n1`, inactive: 88%; as for `CCCc1cc(=O)[nH]c(SCC(=O)N2CCN(c3ccccc3OC)CC2)n1`, inactive: 77%.
As for `CCCN(CCC)C(=O)Cn1c(=O)n(-c2ccc(Cl)cc2)c(=O)c2c3c(sc21)CCCCC3`, the figure is inactive: 80%.
`Cc1ccc(-c2nn(-c3ccc(F)cc3)c3c2cnc2cc(F)c(F)cc23)cc1`: the survival is inactive: 82%.
With `Cc1cc(=O)oc2c3c(ccc12)OCC3=O` the figure was inactive: 98%.
